Data published in the supplement of paper PMC12230231.

Test system: SIVsab (simian immunodeficiency virus of sabaeus monkeys), single-cycle GFP reporter, in CRFK cells
Test: enrichment among uninfected cells over input (fold); higher = stronger restriction
Settings: library: human / rhesus combinations
Protocol: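 Pools of CRFK cells expressing variants of the TRIM5α v1 loop were challenged with the single-cycle reporter, sorted by GFP and sequenced; mean of two replicates.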

Sequence	enrichment
MASGILVNVKEEVTCPICLELLTQPLSLDCGHSFCQACLTANHKKSMLDKGESSCPVCRISYQPENIRPNRHVANIVEKLREVKLSPEGQKVDHCARHGEKLLLFCQEDGKVICWLCERSQEHRGHHTFLTEEVAREYQVKLQAALEMLRQKQQEAEELEADIREEKASWKTQIQYDKTNVLADFEQLRDILDWEESNELQNLEKEEEDILKSLTNSETEMVQQTQSLRELISDLEHRLQGSVMELLQGVDGVIKRTENVTLKKPETFPKNQRRVFRAPDLKGMLEVFRELTDVRRYWVDVTVAPNNISCAVISEDKRQVSSPKPQIIYGAPGTLFTFPSLVNFNYCTGILGSQSITSGKHYWEVDVSKKTAWILGVCAGFQPDAMCNIEKNENYQPKYGYWVIGLEEGVKCSAFQDSSFHTPSVPFIVPLSVIICPDRVGVFLDYEACTVSFFNITNHGFLIYKFSHCSFSQPVFPYLNPRKCGVPMTLCSPSS [human TRIM5α, 330-340 = GAPGTLFTFPSLV]	9.96 ± 0.21
MASGILVNVKEEVTCPICLELLTQPLSLDCGHSFCQACLTANHKKSMLDKGESSCPVCRISYQPENIRPNRHVANIVEKLREVKLSPEGQKVDHCARHGEKLLLFCQEDGKVICWLCERSQEHRGHHTFLTEEVAREYQVKLQAALEMLRQKQQEAEELEADIREEKASWKTQIQYDKTNVLADFEQLRDILDWEESNELQNLEKEEEDILKSLTNSETEMVQQTQSLRELISDLEHRLQGSVMELLQGVDGVIKRTENVTLKKPETFPKNQRRVFRAPDLKGMLEVFRELTDVRRYWVDVTVAPNNISCAVISEDKRQVSSPKPQIIYGAPGTLFTFQSLVNFNYCTGILGSQSITSGKHYWEVDVSKKTAWILGVCAGFQPDAMCNIEKNENYQPKYGYWVIGLEEGVKCSAFQDSSFHTPSVPFIVPLSVIICPDRVGVFLDYEACTVSFFNITNHGFLIYKFSHCSFSQPVFPYLNPRKCGVPMTLCSPSS [human TRIM5α, 330-340 = GAPGTLFTFQSLV]	0.205 ± 0.13
MASGILVNVKEEVTCPICLELLTQPLSLDCGHSFCQACLTANHKKSMLDKGESSCPVCRISYQPENIRPNRHVANIVEKLREVKLSPEGQKVDHCARHGEKLLLFCQEDGKVICWLCERSQEHRGHHTFLTEEVAREYQVKLQAALEMLRQKQQEAEELEADIREEKASWKTQIQYDKTNVLADFEQLRDILDWEESNELQNLEKEEEDILKSLTNSETEMVQQTQSLRELISDLEHRLQGSVMELLQGVDGVIKRTENVTLKKPETFPKNQRRVFRAPDLKGMLEVFRELTDVRRYWVDVTVAPNNISCAVISEDKRQVSSPKPQIIYQARGTLFTFQTFTNFNYCTGILGSQSITSGKHYWEVDVSKKTAWILGVCAGFQPDAMCNIEKNENYQPKYGYWVIGLEEGVKCSAFQDSSFHTPSVPFIVPLSVIICPDRVGVFLDYEACTVSFFNITNHGFLIYKFSHCSFSQPVFPYLNPRKCGVPMTLCSPSS [human TRIM5α, 330-340 = QARGTLFTFQTFT]	0.791 ± 0.25
MASGILVNVKEEVTCPICLELLTQPLSLDCGHSFCQACLTANHKKSMLDKGESSCPVCRISYQPENIRPNRHVANIVEKLREVKLSPEGQKVDHCARHGEKLLLFCQEDGKVICWLCERSQEHRGHHTFLTEEVAREYQVKLQAALEMLRQKQQEAEELEADIREEKASWKTQIQYDKTNVLADFEQLRDILDWEESNELQNLEKEEEDILKSLTNSETEMVQQTQSLRELISDLEHRLQGSVMELLQGVDGVIKRTENVTLKKPETFPKNQRRVFRAPDLKGMLEVFRELTDVRRYWVDVTVAPNNISCAVISEDKRQVSSPKPQIIYQARGTLYTFQSLTNFNYCTGILGSQSITSGKHYWEVDVSKKTAWILGVCAGFQPDAMCNIEKNENYQPKYGYWVIGLEEGVKCSAFQDSSFHTPSVPFIVPLSVIICPDRVGVFLDYEACTVSFFNITNHGFLIYKFSHCSFSQPVFPYLNPRKCGVPMTLCSPSS [human TRIM5α, 330-340 = QARGTLYTFQSLT]	0.224 ± 0.06

Same assay, conditions: library: insertions and deletions

Sequence	enrichment
MASGILVNVKEEVTCPICLELLTQPLSLDCGHSFCQACLTANHKKSMLDKGESSCPVCRISYQPENIRPNRHVANIVEKLREVKLSPEGQKVDHCARHGEKLLLFCQEDGKVICWLCERSQEHRGHHTFLTEEVAREYQVKLQAALEMLRQKQQEAEELEADIREEKASWKTQIQYDKTNVLADFEQLRDILDWEESNELQNLEKEEEDILKSLTNSETEMVQQTQSLRELISDLEHRLQGSVMELLQGVDGVIKRTENVTLKKPETFPKNQRRVFRAPDLKGMLEVFRELTDVRRYWVDVTVAPNNISCAVISEDKRQVSSPKPQIIYGARGTRYTRYQTFVNFNYCTGILGSQSITSGKHYWEVDVSKKTAWILGVCAGFQPDAMCNIEKNENYQPKYGYWVIGLEEGVKCSAFQDSSFHTPSVPFIVPLSVIICPDRVGVFLDYEACTVSFFNITNHGFLIYKFSHCSFSQPVFPYLNPRKCGVPMTLCSPSS [human TRIM5α, 3-codon duplication at 334]	0.655 ± 0.63
MASGILVNVKEEVTCPICLELLTQPLSLDCGHSFCQACLTANHKKSMLDKGESSCPVCRISYQPENIRPNRHVANIVEKLREVKLSPEGQKVDHCARHGEKLLLFCQEDGKVICWLCERSQEHRGHHTFLTEEVAREYQVKLQAALEMLRQKQQEAEELEADIREEKASWKTQIQYDKTNVLADFEQLRDILDWEESNELQNLEKEEEDILKSLTNSETEMVQQTQSLRELISDLEHRLQGSVMELLQGVDGVIKRTENVTLKKPETFPKNQRRVFRAPDLKGMLEVFRELTDVRRYWVDVTVAPNNISCAVISEDKRQVSSPKPQIIYGARGTRYARGTRYQTFVNFNYCTGILGSQSITSGKHYWEVDVSKKTAWILGVCAGFQPDAMCNIEKNENYQPKYGYWVIGLEEGVKCSAFQDSSFHTPSVPFIVPLSVIICPDRVGVFLDYEACTVSFFNITNHGFLIYKFSHCSFSQPVFPYLNPRKCGVPMTLCSPSS [human TRIM5α, 6-codon duplication at 331]	0.27 ± 0.34
MASGILVNVKEEVTCPICLELLTQPLSLDCGHSFCQACLTANHKKSMLDKGESSCPVCRISYQPENIRPNRHVANIVEKLREVKLSPEGQKVDHCARHGEKLLLFCQEDGKVICWLCERSQEHRGHHTFLTEEVAREYQVKLQAALEMLRQKQQEAEELEADIREEKASWKTQIQYDKTNVLADFEQLRDILDWEESNELQNLEKEEEDILKSLTNSETEMVQQTQSLRELISDLEHRLQGSVMELLQGVDGVIKRTENVTLKKPETFPKNQRRVFRAPDLKGMLEVFRELTDVRRYWVDVTVAPNNISCAVISEDKRQVSSPKPQIIYGARGTRYQTFVNFNYQSITSGKHYWEVDVSKKTAWILGVCAGFQPDAMCNIEKNENYQPKYGYWVIGLEEGVKCSAFQDSSFHTPSVPFIVPLSVIICPDRVGVFLDYEACTVSFFNITNHGFLIYKFSHCSFSQPVFPYLNPRKCGVPMTLCSPSS [human TRIM5α, 7-codon deletion at 345]	1.77 ± 0.2
MASGILVNVKEEVTCPICLELLTQPLSLDCGHSFCQACLTANHKKSMLDKGESSCPVCRISYQPENIRPNRHVANIVEKLREVKLSPEGQKVDHCARHGEKLLLFCQEDGKVICWLCERSQEHRGHHTFLTEEVAREYQVKLQAALEMLRQKQQEAEELEADIREEKASWKTQIQYDKTNVLADFEQLRDILDWEESNELQNLEKEEEDILKSLTNSETEMVQQTQSLRELISDLEHRLQGSVMELLQGVDGVIKRTENVTLKKPETFPKNQRRVFRAPDLKGMLEVFRELTDVRRYWVDVTVAPNNISCAVISEDKRQVSSPKPQIIYGARGTRYQTFVNFNYCFNYCTGILGSQSITSGKHYWEVDVSKKTAWILGVCAGFQPDAMCNIEKNENYQPKYGYWVIGLEEGVKCSAFQDSSFHTPSVPFIVPLSVIICPDRVGVFLDYEACTVSFFNITNHGFLIYKFSHCSFSQPVFPYLNPRKCGVPMTLCSPSS [human TRIM5α, 4-codon duplication at 342]	1.15 ± 0.95
MASGILVNVKEEVTCPICLELLTQPLSLDCGHSFCQACLTANHKKSMLDKGESSCPVCRISYQPENIRPNRHVANIVEKLREVKLSPEGQKVDHCARHGEKLLLFCQEDGKVICWLCERSQEHRGHHTFLTEEVAREYQVKLQAALEMLRQKQQEAEELEADIREEKASWKTQIQYDKTNVLADFEQLRDILDWEESNELQNLEKEEEDILKSLTNSETEMVQQTQSLRELISDLEHRLQGSVMELLQGVDGVIKRTENVTLKKPETFPKNQRRVFRAPDLKGMLEVFRELTDVRRYWVDVTVAPNNISCAVISEDKRQVSSPKPQPQIIYGARGTRYQTFVNFNYCTGILGSQSITSGKHYWEVDVSKKTAWILGVCAGFQPDAMCNIEKNENYQPKYGYWVIGLEEGVKCSAFQDSSFHTPSVPFIVPLSVIICPDRVGVFLDYEACTVSFFNITNHGFLIYKFSHCSFSQPVFPYLNPRKCGVPMTLCSPSS [human TRIM5α, 2-codon duplication at 325]	0.477 ± 0.16
MASGILVNVKEEVTCPICLELLTQPLSLDCGHSFCQACLTANHKKSMLDKGESSCPVCRISYQPENIRPNRHVANIVEKLREVKLSPEGQKVDHCARHGEKLLLFCQEDGKVICWLCERSQEHRGHHTFLTEEVAREYQVKLQAALEMLRQKQQEAEELEADIREEKASWKTQIQYDKTNVLADFEQLRDILDWEESNELQNLEKEEEDILKSLTNSETEMVQQTQSLRELISDLEHRLQGSVMELLQGVDGVIKRTENVTLKKPETFPKNQRRVFRAPDLKGMLEVFRELTDVRRYWVDVTVAPNNISCAVISEDKRQVSSPKPQIIYGARGTRYQTNFNYCTGILGSQSITSGKHYWEVDVSKKTAWILGVCAGFQPDAMCNIEKNENYQPKYGYWVIGLEEGVKCSAFQDSSFHTPSVPFIVPLSVIICPDRVGVFLDYEACTVSFFNITNHGFLIYKFSHCSFSQPVFPYLNPRKCGVPMTLCSPSS [human TRIM5α, 2-codon deletion at 339]	0.932 ± 0.86
MASGILVNVKEEVTCPICLELLTQPLSLDCGHSFCQACLTANHKKSMLDKGESSCPVCRISYQPENIRPNRHVANIVEKLREVKLSPEGQKVDHCARHGEKLLLFCQEDGKVICWLCERSQEHRGHHTFLTEEVAREYQVKLQAALEMLRQKQQEAEELEADIREEKASWKTQIQYDKTNVLADFEQLRDILDWEESNELQNLEKEEEDILKSLTNSETEMVQQTQSLRELISDLEHRLQGSVMELLQGVDGVIKRTENVTLKKPETFPKNQRRVFRAPDLKGMLEVFRELTDVRRYWVDVTVAPNNISCAVISEDKRQVSSPKPQIIYIYGARGTRYQTFVNFNYCTGILGSQSITSGKHYWEVDVSKKTAWILGVCAGFQPDAMCNIEKNENYQPKYGYWVIGLEEGVKCSAFQDSSFHTPSVPFIVPLSVIICPDRVGVFLDYEACTVSFFNITNHGFLIYKFSHCSFSQPVFPYLNPRKCGVPMTLCSPSS [human TRIM5α, 2-codon duplication at 328]	1.11 ± 0.24
MASGILVNVKEEVTCPICLELLTQPLSLDCGHSFCQACLTANHKKSMLDKGESSCPVCRISYQPENIRPNRHVANIVEKLREVKLSPEGQKVDHCARHGEKLLLFCQEDGKVICWLCERSQEHRGHHTFLTEEVAREYQVKLQAALEMLRQKQQEAEELEADIREEKASWKTQIQYDKTNVLADFEQLRDILDWEESNELQNLEKEEEDILKSLTNSETEMVQQTQSLRELISDLEHRLQGSVMELLQGVDGVIKRTENVTLKKPETFPKNQRRVFRAPDLKGMLEVFRELTDVRRYWVDVTVAPNNISCAVISEDKRQVSSPKPQIIYGRGTRYQTFVNFNYCTGILGSQSITSGKHYWEVDVSKKTAWILGVCAGFQPDAMCNIEKNENYQPKYGYWVIGLEEGVKCSAFQDSSFHTPSVPFIVPLSVIICPDRVGVFLDYEACTVSFFNITNHGFLIYKFSHCSFSQPVFPYLNPRKCGVPMTLCSPSS [human TRIM5α, 1-codon deletion at 331]	1.22 ± 0.82

± gives the standard deviation of the averaged measurements. Restriction of a single-cycle SIVsab GFP reporter by TRIM5α v1-loop variants in CRFK cells. Human variants: read share among cells still uninfected after two challenges over input, higher = gained restriction. Rhesus variants: share among infected cells over input, higher = lost restriction. Reporter dose not given per row. No active / inactive call per row; the paper calls a change when both replicates lie above its controls (mean + 2 SD of stop or wild-type variants, or the top frameshift score). Residues outside the varied loop are taken from Swiss-Prot. The paper reads the human single-substitution scores as noise; they and the rhesus combinations repeat poorly (rank correlation 0.3 to 0.4), indel scores repeat only for the top variants, rhesus substitutions well (0.9).
